# Measured values reported in PubChem BioAssay (NCATS).
# The inconclusive results got no clear call from the source; some entries with a clear call stand among them for comparison. Potencies of inconclusive entries are left out as doubtful fits. Calls of active or inactive are those of the source. The call rests on the fitted dose curve; in most records, active means well fitted curve in the direction sought with a large enough effect; inconclusive means small, poorly fitted or top-dose-only effect, or another doubt; inactive means no such curve, though single readings can be large; an effect the other way counts as inactive or inconclusive.
# Assays:
# [1] = qHTS for Inhibitors of Plasmodium falciparum (GB4) proliferation (AID 504315); further: nearly all actives have a fitted effect of over 50% in size; settings: P. falciparum GB4 in erythrocytes, SYBR Green DNA, 72 h; activity change, negative = inhibition: at 6.7 µM (top of the series)
# Outline: (§1)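 Parasite growth measured as SYBR Green DNA fluorescence (ex 485, em 535 nm) after overnight lysis following 72 h culture at 37 °C, 0.3% parasitemia, 2.5% hematocrit. Values normalized against DMSO and 0.29 uM artemisinin controls, with plate-stack correction.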
# [2] = qHTS for Inhibitors of Plasmodium falciparum (7G8) proliferation (AID 504316); further: nearly all actives have a fitted effect of over 65% in size; settings: P. falciparum 7G8 in erythrocytes, SYBR Green DNA, 72 h; activity change, negative = inhibition: at 6.7 µM (top of the series)
# Outline: as §1
# [3] = qHTS for Inhibitors of Plasmodium falciparum (HB3) proliferation (AID 504318); further: nearly all actives have a fitted effect of over 60% in size; settings: P. falciparum HB3 in erythrocytes, SYBR Green DNA, 72 h; activity change, negative = inhibition: at 7.21 µM (top of the series)
# Outline: as §1
# [4] = qHTS for Inhibitors of Plasmodium falciparum (CP250) proliferation (AID 504320)
# Outline: as §1
# Potency means the concentration at half of the fitted maximal effect; tags describe the fitted curve by direction and shape.
Compound,Potency [1],Potency [2],Potency [3],Potency [4]
C=CCN1c2ccccc2[C@]23C[C@@H](C(=O)OC)N(C(=O)c4ccc(Br)cc4)C2=NC(C(=O)OC)=C(C(=O)OC)[C@H]13,"inconclusive [inhibitor, single point]","inconclusive [inhibitor, single point]","inconclusive [inhibitor, single point]",
COC(=O)[C@@H](NC(=O)N1CCc2nc(-c3ccc(OC)cc3C)c3c(c2C1)CO[C@@H](c1ccccc1)C3)C(C)C,active: 1.9 µM,active: 1.69 µM,"inconclusive [inhibitor, partial curve]",
C=C(C)CCCN1C=C(C(=O)OCC)C(c2ccccc2)NC1=O (centres undefined),"inconclusive [inhibitor, partial curve, poor fit]","inconclusive [activator, full curve, poor fit]",inactive,
C[C@@H]1CC2=CCCC2[C@]2(O1)C(=O)N(Cc1ccc(Br)cc1)c1cccc(Br)c12 (some centres undefined),"inconclusive [inhibitor, partial curve]",,"inconclusive [inhibitor, single point]",
Cc1cc(C)c(S(=O)(=O)OC[C@H]2C=CC[C@@H](CCC[C@H]3O[C@H](C(=O)OC(C)C)CC[C@@H]3C)O2)c(C)c1,inactive,,"inconclusive [inhibitor, single point]",
CCN(CCNC(=O)[C@H]1C=C(OC)C(=O)C[C@H](c2ccccc2)[C@@H]1C)C(C)=O,"inconclusive [inhibitor, partial curve]",,inactive,
CC1=C[C@@H](C)OC2(C1)C(=O)N(Cc1ccc(Br)cc1)c1cccc(Br)c12 (some centres undefined),inactive,,"inconclusive [inhibitor, single point]",
COC(=O)C1=C(C)N(Cc2ccccc2)C(=S)NC1c1ccccc1 (centres undefined),inactive,,"inconclusive [inhibitor, single point]",
COC(=O)c1ccccc1S(=O)(=O)N1CCc2nc(-c3ccccc3)c3c(c2C1)CO[C@@H](C)C3,"inconclusive [inhibitor, partial curve]",,"inconclusive [inhibitor, partial curve]",
CC(=O)OC[C@H]1O[C@H](CCON=C[C@@H](C)[C@H](OCc2ccccc2)C(C)C)C=C[C@@H]1OC(C)=O,inactive,,inactive,
COC(=O)[C@@H](NC(=O)N1CCc2nc(COc3ccccc3)c3c(c2C1)CO[C@@H](C)C3)C(C)C,"inconclusive [inhibitor, single point]",,"inconclusive [inhibitor, single point]",
C=CCN1C=C2C(=O)C(C)(OC(=O)CC)C(=O)C=C2C=C1CCCC (centres undefined),"inconclusive [inhibitor, full curve, poor fit]",,inactive,
CC1(O)C(=O)C=C2C=C(CCCCOCc3ccccc3)OC=C2C1=O (centres undefined),"inconclusive [inhibitor, partial curve, poor fit]",,"inconclusive [inhibitor, partial curve, poor fit]",
C=CCCCC=C(C)[C@H](OCc1ccc(OC)cc1)[C@H](CCC=C(C)C(N)=O)OC,"inconclusive [inhibitor, partial curve]","inconclusive [inhibitor, single point]",,inactive
COC(=O)C1=C[C@@H]([C@@H](C)[C@H](OC)c2ccccc2Br)[C@@H]2OCC[C@H]12,"inconclusive [inhibitor, full curve, poor fit]",,inactive,
CO[C@H](C1CCCCC1)[C@H](C)C=CCC(=O)OCCCc1ccccc1,inactive,inactive,,inactive
COC(=O)c1ccccc1C[C@]1(C(=O)OC)C=C[C@H](C)[C@@H](c2ccccc2)N1C(=O)C(F)(F)F,inactive,,inactive,
C=CCN1C(=O)[C@]2(OCCC=C[C@@H]2C)c2cc(OC)ccc21,inactive,,"inconclusive [inhibitor, full curve]",
COCCN1C=C2C(=O)C(C)(OC(=O)CCC(=O)OC)C(=O)C=C2C=C1C1CC1 (centres undefined),"inconclusive [inhibitor, single point]","inconclusive [inhibitor, single point]",,"inconclusive [inhibitor, single point]"
